According to the supplement of paper PMC12632987:
Whole data set: some 1,800 sequences, median “median log2 fold change of GCK-ALFA target abundance (FLAG IP / Myc IP barcode read proportion)” near 0.14, cut for the lowest 2% near -0.84. The list shows a part of the results.

T1: TRAF2, Q12933
T1 chain: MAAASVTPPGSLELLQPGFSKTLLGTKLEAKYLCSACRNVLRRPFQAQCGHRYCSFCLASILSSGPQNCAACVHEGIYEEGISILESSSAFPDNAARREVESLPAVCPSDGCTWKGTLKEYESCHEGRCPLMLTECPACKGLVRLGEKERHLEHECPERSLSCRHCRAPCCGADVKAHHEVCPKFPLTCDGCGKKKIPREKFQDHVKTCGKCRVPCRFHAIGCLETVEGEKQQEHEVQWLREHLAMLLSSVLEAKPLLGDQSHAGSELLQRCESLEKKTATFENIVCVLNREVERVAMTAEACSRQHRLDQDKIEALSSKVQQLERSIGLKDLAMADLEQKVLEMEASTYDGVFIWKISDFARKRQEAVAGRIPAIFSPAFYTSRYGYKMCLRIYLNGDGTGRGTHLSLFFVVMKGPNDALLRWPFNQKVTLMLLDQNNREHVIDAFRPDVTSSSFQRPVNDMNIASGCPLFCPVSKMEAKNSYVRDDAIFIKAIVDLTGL

B1: traf2_out_17_162_1602 (protein)
chain: SELEKFIERIEERLERLEEEARRLEEKLKRIEELSKEELSDLLVEASEARREARELIEELEKHKEELPEELYKRLLERAEEIAERFQRLANEIYKELEKK
B2: traf2_out_11_169_881 (protein)
chain: EEKEKNRKFNDFALELNDKAKEELLKFSLELAKELGLDVEEVKKIYEENKNKSLSYLASKLIEYFKSKGHEEAAKKVLEKYEKLQDEINKEGTKKLKELE
B3: traf2_out_15_17_1310 (protein)
chain: SAEAALNEALRKATNEVLDEAEKLLEELVAEARKEAEKDGTLEELNKLIEESKDYSVISQIQILAQWAKEKGFTELAKRLEEAAEEMRKRFSDAAKAVEA
B4: traf2_out_16_171_1437 (protein)
chain: AQAEREAALKAEIDAWAAELKARADTAVEVAPLISKETGLTKEQIAAGFRSTMTDRIAAARDYFTAKAKDLSEEVKKYIDERLADVRAHLDAAVAAILAQ
B5: traf2_out_16_104_1406 (protein)
chain: AAATQAAFDAIIAELNKIAEELGKIANKIYKKMETASPELKEKLTDALVDASELRRQALEAAVAAAQARATGGDLAAAQATLAELKKKAEEVKKKAEELF
B6: traf2_out_13_95_1075 (protein)
chain: SKEANEKIKEIADEMLEKSKEILKELAEKVKDDPEMKAKVEEALYLAETQGINAAIHLLKELAKENEKYKELLEKTIEELEKIKREAGREVAKILKEEEE
B7: traf2_out_11_155_678 (protein)
chain: ERRRELNNELVDEVTAIADEAEAELRAIAAEAAAAHPEAAAAIAAVLAASRPFSHRSLGGRLAALFRELGLEDEAARVEALLERAQKRANEIVKRIEAEL
B8: traf2_out_17_162_1640 (protein)
chain: SPVEEFKERVEKELKELEKRVEELEEKSKKIDEYSKEELSDLIVEASEVKRRARELKQEVLAAKDLIPEEERARILKRLEEIIERAQRIAQKFYDKYLSL
B9: traf2_out_16_104_1395 (protein)
chain: SSEKEAEFKKIAEELLEIAERAGRIANRAYKLYEKADPERKTELSDLMVEASELRREALLAAQEVKEWLETGGDLEEAKAKLEELKKRLKEIEERLKELE
B10: traf2_out_6_156_2417 (protein)
chain: MVEEIFKEALKKIKEEIKKLSEASEEKKIKYISRIAGTAYRALQQLRDAGASLEEIKEFAERLLEEIEKEAKKAGLDEKTRNLLLSSLQAVFDVAIAEAE
B11: traf2_out_14_17_1297 (protein)
chain: SIIEKLKEILEKAKELAKKLPELKLELTQLARKAESALVLAEMYEEDPSYKPELLQALKNLIKLTKEVAEKVKPISEEAVKKLEEIAKTAEEILKEVEKE
B12: traf2_out_14_149_1254 (protein)
chain: SATEEKKKALEEARKLMEEIIKILEKALKAGSTDVDKEKIRKLLEEAREILKKQGFVLGHLLAMEEMLETTKEWTLEDIKAFLELAKRAAESLKVLAEML
B13: traf2_out_20_3_2155 (protein)
chain: SELEEEAEKAREEAIKLLEEAAKLADPETAKRLEELRERVERSRELSPEDRLVELSEVRREVLELAEEAAAAGDEELAAVLEEAAEALNRAMNLVYQIIL
B14: traf2_out_20_38_2049 (protein)
chain: SALEEDAARLEELAPKFFEATDEVDERLEKLKKEGKSVAEAAIEILKEKKKEAKTEEAKKELDEGIKEVEKLKKEGASDEVIRRVTIRAVNTALWIELNA
B15: traf2_out_16_104_1373 (protein)
chain: SEELERRLEELRRELEEVESEYNRVAQQALEQLPSLSEEERQKVLDLLADASEARRRAKEALERAERLLREGGPEEEIERELEEAERYLEELRALIEQLK
B16: traf2_out_1_158_908 (protein)
chain: STDVSTLHAVATSIAEVYAEEAKERGLEKAAELLKKLKKEIEKLYEANKDASLEEMAAKVLELIKKFEEESKSFDPETREFVEIAFRQIRSGILQVVKLA
B17: traf2_out_11_79_937 (protein)
chain: EEKKKKLLELLKEALKLLEELLKKMKEGTISKEEREKMLDEIERLLQKAAMLALELGLSDVLVKISEAKRHVRLAYSGDLKSIEEAIKEVKEAIKLLEKA
B18: traf2_out_17_35_1754 (protein)
chain: MSETEKEREIANEIADKILEESDKKNEELEKVYEETKDKKAVVEKTKEILKEYGIEEEEIKLLEEHYKTGNDEEILEFSKSLVRRAVGEKYGKEYAEKLK
B19: traf2_out_20_3_2106 (protein)
chain: EELEEELEEELEEALALLEEAAALADPETAARLKALAARVEASRSLPYTDRLVALSEVRREVLLLAQEARAAGREELAAVLEEAAEELNEAMNLVMKIIE
B20: traf2_out_6_156_2401 (protein)
chain: MKEEILKETKAEIEKLIKELSKASEEKKISYINKIAGTVYRGLQRLREAGASVEEIAAFVKEIIEFTEKKLDEEGIEEDIKNLILSSLNAVGDVALASAA
B21: traf2_out_6_169_2500 (protein)
chain: MEKEELLKEAERHRKRAEELLKLAETIYKQAKENKDKSKIPIYLEAMETMLNALKRHYELAIEALKKLGKEEEAKEAEKKKKEHIEKMEKMIEEIKKMLK
B22: traf2_out_14_149_1247 (protein)
chain: SHMAETLRAAAELNERIAKALEEILKLLEAGKLEEAKAALEAAIKEAEALGEELGVTTSGIFEMEHILKLLKEDPEEAKKAVKEAAERARDAAEVLRSIA
B23: traf2_out_17_162_1494 (protein)
chain: AELEKELKELEKKLKELEKKLKELEEKLKNLEKLSKEEITDLLVEASELKREALELAERLKRLAKETGDPRLKELIEKAEKLAEKAQKIANKIYKELEKK
B24: traf2_out_16_104_1382 (protein)
chain: SAAKEKEFKAIIARLEAIADEANRLANELYELMKTASPEKRKKLSDALVKVSELRREALEAAEKAREALKTGGDLEEARKKLKELEKKLKELKKEVEELK
B25: traf2_out_17_162_1613 (protein)
chain: SELEEKLEELKKKLKELKEKLKELEEKLKNIKELSKEELTDLLVEASEARREALEALEEIKELKDKLDPELYEKLSKEYEELAEKFQEIANKFYKELEKK
B26: traf2_out_16_177_1454 (protein)
chain: ELSKLMDRLVILSEIRRAALEIVESDSPLADEHLARAREEAEEAGDEEGLERIEEIEELRAKNTPEALEKLRELAREAGREAQRLADEAEALIAARAAAE
B27: traf2_out_17_60_1759 (protein)
chain: SAEEEDAALAAEAREAIAEARRLVEEVNAKIEAGTLTADEAMDYLVELTEKRRRLEALRDELEARGPAFAPLAAELAAAIEELRRTANKVGKLLEELLAK
B28: traf2_out_18_167_1863 (protein)
chain: MEELREKLEEATDKLVELSEIRRALLEALQLLEKSREEAKAYLKEKLEELPDSEILKEALEVLETKSDEEFKKFLEEKIEELQKKMNETYKEVEELRKKL
B29: traf2_out_17_35_1756 (protein)
chain: MTPTEKERKIASEIADKILEESDRLNARLDAIWEATGDPQAVVDATKAILDEYGIGEEEKAHLDAHAATATPEELLAVSHALIRRAVGEKYGKKYAELLK

Target: T1, TRAF2, Q12933
Assay: median log2 fold change of GCK-ALFA target abundance (FLAG IP / Myc IP barcode read proportion) (log2 ratio); each designed protein is fused to an ALFA-tag nanobody in HEK293 cells to bring the named protein to FLAG-tagged glucokinase (GCK); Myc marks an untargeted standard; higher = target protein stabilised (more abundant)
Details: target protein: 3xFLAG-MCP-GCK-ALFA reporter; HEK293 landing pad (RPLP)
Summary of the method: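 An ALFA-nanobody-fused binder library was recombined into HEK293 landing-pad cells and induced with 2 μg mL^−1 doxycycline. Cells were transfected with a plasmid expressing a FLAG-tagged target and a Myc-tagged standard. After 48 h, lysates underwent anti-FLAG and anti-Myc immunoprecipitation, and circular RNA barcodes were reverse transcribed, amplified and sequenced. Target abundance is the per-binder median log2 ratio of FLAG to Myc barcode read proportions. Barcodes needed ≥10^−7 proportion in both replicates, binders ≥3 barcodes per replicate, and a 10^−6 pseudocount was added; the two replicates were pooled.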

| Binder | median log2 fold change |
| --- | --- |
| B1 | 0.6 |
| B2 | 0.301 |
| B3 | 0.168 |
| B4 | -0.0368 |
| B5 | 0.196 |
| B6 | 0.162 |
| B7 | 0.0174 |
| B8 | 0.0147 |
| B9 | 0.47 |
| B10 | 0.0576 |
| B11 | 0.298 |
| B12 | 0.199 |
| B13 | 0.22 |
| B14 | 0.106 |
| B15 | 0.28 |
| B16 | 0.0558 |
| B17 | 0.000129 |
| B18 | 0.269 |
| B19 | 0.0314 |
| B20 | -0.198 |
| B21 | -0.186 |
| B22 | -0.194 |
| B23 | 0.0628 |
| B24 | 0.0613 |
| B25 | 0.58 |
| B26 | 0.0863 |
| B27 | -0.077 |
| B28 | 0.306 |
| B29 | 0.172 |
